Source: PubChem BioAssay AID2060361 (Molecular Pharmacology Branch, DTP, NCI, 2025)
Not every entry of the source has a single result; some have several. This is not the full list of results. The source may hold further records. The records of an entry are repeats in other runs, samples, wells, individuals or studies. Brackets with × stand for listed records that agree.

Tested on: 463943-066-T-J2-PDC tumor spheroids with HUVEC/MSC, viability
Experiment: Anticancer human tumor 463943-066-T-J2-PDC patient-derived colon adenocarcinoma cell line growth inhibition [TAK]
Conditions: stronger effect = lower value
Description: Combinatorial screen of targeted agents with TAK-243 and ipatasertib in multi-cell type tumor spheroids
A high-throughput screen of multi-cell type tumor spheroids was designed to identify active combinations of targeted small molecules and TAK-243 or ipatasertib. Complex spheroids include a stromal component modeled by human endothelial cells (HUVEC) and fibroblasts modeled by human mesenchymal stem cells (MSCs). The concentration ranges selected for each drug and investigational agent were based upon clinically achievable concentrations if the clinical Cmax of the agent was known.
Compounds. The drugs and investigational agents: TAK-243 (785004), ipatasertib (767898), everolimus (733504), selumetinib (741078), bortezomib (756655), trametinib (758246), ixazomib (758254), vemurafenib (761431), dabrafenib (764134), sapanisertib (764658), alpelisib (765974), and copanlisib (816437), were obtained from the National Cancer Institute (NCI) Developmental Therapeutics Program Chemical Repository. The FDA-approved anticancer drug set is available from the NCI Developmental Therapeutics Program. […] The stock solutions were prepared in dimethyl sulfoxide (DMSO, Sigma-Aldrich, St. Louis, MO, cat. D2650) at 800-fold the tested concentration and stored at -70 degrees C prior to their use. All drugs and investigational agents were tested over a range starting from a high concentration at or near the clinical Cmax and decreasing in half-log increments. If the clinical Cmax for an agent had not been determined, the highest concentration tested was 10 microM.
NCI60 Cell Culture. NCI60 cell lines were obtained from the NCI Developmental Therapeutics Program Tumor Repository. […] The optimal seeding densities for each of the cell lines at each time point assessed were determined prior to performing the concentration response studies. […]
For the pre-screen, cell seeding densities were determined from a titration spanning the range from 5,000 to 313 cells per well. […]
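Note: spheroids exposed to drugs for seven days; 100% = DMSO vehicle control wells.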

CC(C)NCC(C(=O)N1CCN(c2ncnc3c2C(C)CC3O)CC1)c1ccc(Cl)cc1 (stereo not drawn)
viability, T/C (compound alone 0.949 µM): 76.7, 103, 85.4, 111, 96.3, 92.3, 88.5, 92.5, 88.9, 92.6%
viability, T/C (compound alone 9.49 µM): 77.2, 99.9, 88.3, 86, 98.1, 92.6, 109, 94, 93.3, 94.7%
viability, T/C (compound alone 30 µM): 76.8, 103, 88.3, 91.8, 98.2, 101 (2×), 94.6, 99.6, 90.6%
